Whole data set: some 110,000 compounds, median “z-score” near -0.1, cut for the highest 2% near 2. The list shows a part of the results. The source made the active and inactive calls.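 How the source made its calls: active means z-score in the third read window above 3 or below -3; inactive means the rest.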

The values below come from PubChem BioAssay AID488969 (Vanderbilt High Throughput Screening Facility, 2010).

The experiment has as its target Metabotropic glutamate receptor 8 (Rattus norvegicus) (UniProt P70579). As to the kind of experiment: rat mGluR8 modulators via GIRK flux, primary screen, cell-based, thallium flux, HTS (AID 488969). As to conditions: HEK293 rat mGluR8, GIRK (G protein-gated inwardly rectifying potassium channel) thallium flux, FluoZin2; at 10 µM; stronger effect = higher value; submaximal glutamate (EC20) added with thallium.
Chain of UniProt P70579 (P70579 whole entry, looked up): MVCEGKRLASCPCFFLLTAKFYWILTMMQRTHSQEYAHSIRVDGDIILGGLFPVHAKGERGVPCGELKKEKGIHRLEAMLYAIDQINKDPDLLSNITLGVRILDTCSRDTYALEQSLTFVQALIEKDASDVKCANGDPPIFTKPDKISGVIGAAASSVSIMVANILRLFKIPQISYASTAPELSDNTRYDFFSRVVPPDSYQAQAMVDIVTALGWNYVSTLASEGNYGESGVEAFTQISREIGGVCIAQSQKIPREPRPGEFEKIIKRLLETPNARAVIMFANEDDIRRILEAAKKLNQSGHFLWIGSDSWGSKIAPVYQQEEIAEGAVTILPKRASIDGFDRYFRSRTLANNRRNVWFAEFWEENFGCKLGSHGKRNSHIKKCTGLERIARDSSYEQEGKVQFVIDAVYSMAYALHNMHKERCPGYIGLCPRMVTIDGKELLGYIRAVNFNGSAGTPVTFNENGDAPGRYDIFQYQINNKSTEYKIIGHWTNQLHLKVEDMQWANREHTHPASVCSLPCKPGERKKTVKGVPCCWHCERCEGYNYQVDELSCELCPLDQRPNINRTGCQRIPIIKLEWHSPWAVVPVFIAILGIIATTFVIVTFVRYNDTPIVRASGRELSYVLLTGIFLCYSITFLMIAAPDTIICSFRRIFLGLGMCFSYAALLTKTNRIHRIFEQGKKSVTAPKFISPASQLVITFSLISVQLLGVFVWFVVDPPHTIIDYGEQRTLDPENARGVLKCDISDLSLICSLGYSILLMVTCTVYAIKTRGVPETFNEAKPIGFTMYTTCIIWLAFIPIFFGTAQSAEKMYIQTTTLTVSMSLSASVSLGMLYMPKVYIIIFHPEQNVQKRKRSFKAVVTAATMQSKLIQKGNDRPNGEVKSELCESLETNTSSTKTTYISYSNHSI
Consider `COCC(C)OC(=O)c1c(N)n(CC(C)C)c2nc3ccccc3nc12` (stereo not given), for which the z-score was active: -3.75. `Cc1nnc(Sc2c(-c3ccccc3)c3ccc(Cl)cc3[nH]c2=O)s1`: the z-score was -0.273. Turning to `CC1CCC(NC(=O)Nc2cccs2)CC1` (stereo not given), the z-score amounted to 0.643. Consider `CC1CCN(C(=O)Nc2ccc3nsnc3c2)CC1`, for which the z-score is -0.183. On to `Cc1nc(NNC(=O)c2ccc([N+](=O)[O-])cc2)cc(-c2ccccc2)n1`, for which the z-score is -0.171. With `CCOCCCNC(=O)C1CCN(S(=O)(=O)N2CC(C)CC(C)C2)CC1` (stereo not given), the z-score was -0.22.

As to `Cc1nn(C)c(C)c1CNC(=O)c1cc2n(n1)C(C(F)(F)F)CC(c1cccs1)N2` (stereo not given), the z-score is -0.345. Under `COc1ccc2c(C=O)c[nH]c2c1` stands -0.452.

As for `O=C(O)C1CCN(c2ncccn2)CC1`, the z-score is -0.024. Compound `CCn1cnc2c(cnn2-c2ccccc2)c1=O` displayed a z-score of -0.902.

Regarding `N#C/C(=C\c1cn(CCOc2ccccc2)c2ccccc12)C(=O)NCc1ccco1`, the z-score was -0.0113.

On to `CCOC(=O)Cc1csc(N/C(=N/S(=O)(=O)c2ccc(F)cc2F)c2ccccc2)n1`, for which the z-score is 0.0927.

The compound `COc1ccc(C(CNC(=O)CN2C(=O)NC3(CC(C)CC(C)(C)C3)C2=O)N2CCOCC2)cc1` (stereo not given) gave a z-score of -0.081. As to `CSc1nc2ccc(S(=O)(=O)N3CCCC3)cc2s1`, the z-score was -0.112. With `CCC(=O)N1CCN(c2ccccc2NC(=O)c2ccc(-c3cccc([N+](=O)[O-])c3)o2)CC1`, the z-score worked out at 0.059. Under `Cc1cccc(OCC(=O)N/N=C\c2cc3c(cc2[N+](=O)[O-])OCO3)c1C` stands -0.147; under `CC(=O)CC1(C)OC(N)=C(C#N)C1(C#N)C#N` (stereo not given), -0.0692; under `Cc1cc(C)cc(N(CC(=O)NCC2CCCO2)C(=O)CCC(=O)Nc2cc(C)on2)c1` (stereo not given), -0.639. `Cc1cc(NC(=O)Cn2c(C)nc3ccccc3c2=O)ccc1Br`: the z-score was -0.0994.

In the case of `COc1ccccc1N1CCN(C(=O)C2CCN(S(=O)(=O)N3CCOCC3)CC2)CC1`, the z-score turned out to be 0.126. Compound `O=C(CCC1CC(=O)Nc2ccccc21)NCc1ccccc1` (stereo not given) registered a z-score of 0.23.

For the compound `CCC(CC)C(=O)Nc1nnc(SCC(=O)N2CCN(c3ccccc3OC)CC2)s1`, the z-score is -0.609. Regarding `Nc1cccc(-c2nc3cc(S(=O)(=O)c4ccc5oc(-c6cccc(N)c6)nc5c4)ccc3o2)c1`, the z-score was 0.0642. Take `COc1ccc(S(=O)(=O)N(CC(=O)N2CCN(c3ccccc3)CC2)c2ccccc2)cc1`: the z-score was 2.25.

Compound `Cc1cccc(Nc2nc(N)nc(CSc3nccn3C)n2)c1` registered a z-score of -0.137. Regarding `c1ccc(-c2noc(-c3cccs3)n2)nc1`, the z-score was -0.107.

On to `Cc1cc(Cl)ccc1OCC(=O)N1C(C)CCCC1C` (stereo not given), for which the z-score is -0.44. Under `COc1ccc(CNC(=O)CSCc2cnn(-c3ccccc3)c2-n2cccc2)cc1` stands 0.0302; under `Cn1nnnc1P(=O)(c1ccccc1)c1ccccc1`, 0.198; under `CCOC(=O)c1c(N)nn(C(=O)C(C)C)c1-c1ccccc1`, -0.103. Turning to `O=C(NCc1cccnc1)c1cnn2ccccc12`, the z-score came out at 0.158. The compound `COCCNC(=O)CN(Cc1ccc(Cl)cc1)S(C)(=O)=O` registered a z-score of -0.0327. As for `COc1ccc(OC)c(Nc2ccc(Nc3cc(OC)ccc3OC)nn2)c1`, the z-score is -0.125. The compound `COc1ccc(C(=O)Nc2ccccc2C(=O)NC(C(=O)NCc2ccco2)C(C)C)cc1` (stereo not given) returned a z-score of -0.474. The compound `O=c1c2ccccc2nc(-c2ccccc2)n1CCN1CCOCC1` displayed a z-score of -0.677.

For `Cc1ccc(-c2cc(C(F)F)nc(N3CCC(C)CC3)n2)cc1`, the z-score was -0.269. Compound `Fc1ccc(CO/N=C/C2=C(Cl)c3ccccc3CC2)cc1` came in with a z-score of 1.72.

In turn, `COc1ccc(Br)cc1S(=O)(=O)N1CCOCC1` returned a z-score of -0.1. For the compound `O=C(NCCCn1ccnc1)Nc1cccc2ccccc12`, the z-score worked out at 1.54. The compound `Cc1ccc(OCc2nnc(SCC(=O)Nc3nccs3)n2-c2ccccc2)cc1C` showed a z-score of -0.17. Under `Cn1cc(-c2nnnn2-c2ccc(Cl)cc2)c(=O)c2ccccc21` stands -0.238; under `CCOC(=O)C1=C(C)NC2(O)c3ccccc3C(=O)C12O` (stereo not given), 0.868; under `Cc1ccc(-c2ccc(CCC(=O)O)n2C(C)C)cc1`, -0.00219. The compound `CC(=O)c1ccccc1NC(=O)COC(=O)c1ccccc1NC(=O)c1ccccc1` displayed a z-score of 0.161. For `Cc1ccc(-c2[nH]nc3c2C(c2ccc(OC(=O)N4CCOCC4)cc2)C(C#N)=C(N)O3)cc1` (stereo not given), the z-score is -0.378. Under `Cc1ccc(/C=N/NC(=O)CSc2nc3ccccc3c(=O)n2-c2ccccc2)s1` stands -0.182; under `O=c1c2cn[nH]c2nc(SCc2ccc3c(c2)OCCO3)n1-c1ccccc1`, -0.345; under `COc1cc(C2NC(=O)NC(c3ccccc3)=C2C(C)=O)ccc1OCC(=O)O` (stereo not given), 0.117. The compound `Clc1ccc(OCCN2CCOCC2)cc1Cl` yielded a z-score of 0.403.

Take `O=C(/C=C/c1ccc(Br)o1)OCc1ccccc1`: the z-score came to 1.52.

Consider `CCCNS(=O)(=O)c1ccc(CCC(=O)N2CCCCC2)cc1`, for which the z-score was -0.193. For `CCOC(=O)c1sc2nc3c(cc2c1N)COC(C(C)C)C3` (stereo not given) the value was -0.804; for `c1ccc2c(-c3nnc4n3CCCCC4)cc(-c3ccncc3)nc2c1`, 0.284.

Compound `Cc1ccc(CNC(=O)C2c3ccccc3C(=O)N(C)C2c2c[nH]c3ccccc23)o1` (stereo not given) gave a z-score of -0.464. The compound `Cc1ccc(S(=O)(=O)N2CCCC(C(=O)Nc3cccnc3)C2)cc1` (stereo not given) gave a z-score of -0.0543. Under `O=C(Nc1ccc(N2CCOCC2)cc1)C1CC1` stands 0.35. As to `COC(=O)c1ccc(NCCc2csc(-c3ccc(C)cc3)n2)c([N+](=O)[O-])c1`, the z-score was -0.401. Compound `COc1ccc(NC(C)=O)cc1NC(C)C(=O)Nc1ccc(F)c(F)c1F` (stereo not given) had a z-score of -1.29. In turn, `S=C(NCc1ccccn1)Nc1ccc(Cl)cc1Cl` displayed a z-score of -0.0135. Regarding `COc1ccc(C(=O)N2CCc3cc(OC)c(OC)cc3C2c2cccc([N+](=O)[O-])c2)cc1OC` (stereo not given), the z-score is -0.216. Compound `CCOc1ccc(-n2c(SCC(=O)Nc3ccc4c(c3)OCO4)nc3ccccc3c2=O)cc1` came in with a z-score of -0.538. `Cc1nc2sccn2c1-c1nc(-c2cc3ccccc3o2)cs1` yielded a z-score of -0.563. For `CCCc1nc2sc3c(=O)n(N)cnc3c2c2c1COC(C)(C)C2`, the z-score was -0.29. `CCCc1nc2oc3c(OC)ncnc3c2c2c1COC(C)(C)C2` came in with a z-score of -0.224. Under `O=C(Cc1ccc(Cl)cc1)Nc1ccc(N2CCN(C(=O)c3ccco3)CC2)c(Cl)c1` stands 2.13. Under `Fc1ccccc1C(c1nnnn1C1CCCC1)N1CCN(Cc2ccccc2)CC1` (stereo not given) stands 0.671; under `COc1cccc(N=Nc2c(N)[nH][nH]c2=O)c1`, -0.199. The compound `CCOC(=O)N1CCN(C(=O)c2ccccc2NC(=O)COc2ccccc2C)CC1` displayed a z-score of 0.774.

`Cc1ccc2c(C)nc(N/C(N)=N/S(=O)(=O)c3ccc([N+](=O)[O-])cc3)nc2c1` registered a z-score of -0.286.

Turning to `CCn1c(COc2ccccc2)nnc1SCC(=O)c1cccc([N+](=O)[O-])c1`, the z-score was -0.246.
